Results from US20260085122A1 (BEONE MEDICINES I, published 2026).

T1: mouse B7H3-his (mouse, UniProt Q8VE98)
T1 construct: recombinant, His-tagged; not in the list MOLECULES; also called mouse B7H3-His (SinoBiological, 50973-M08H)
T1 sequence (antigen coated on the ELISA plate, looked up): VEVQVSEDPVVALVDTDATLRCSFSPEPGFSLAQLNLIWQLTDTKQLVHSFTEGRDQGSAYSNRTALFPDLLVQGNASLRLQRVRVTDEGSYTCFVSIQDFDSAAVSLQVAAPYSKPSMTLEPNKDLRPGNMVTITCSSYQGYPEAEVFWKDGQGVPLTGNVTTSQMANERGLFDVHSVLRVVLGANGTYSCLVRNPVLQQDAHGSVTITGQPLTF

T2: hu 4Ig-B7H3 ECD-mIgG2a (human)
T2 construct: Made in house in HEK293-based cells; also called mIgG2a Fc-fusion protein of hu 4Ig-B7H3 ECD
T2 chain: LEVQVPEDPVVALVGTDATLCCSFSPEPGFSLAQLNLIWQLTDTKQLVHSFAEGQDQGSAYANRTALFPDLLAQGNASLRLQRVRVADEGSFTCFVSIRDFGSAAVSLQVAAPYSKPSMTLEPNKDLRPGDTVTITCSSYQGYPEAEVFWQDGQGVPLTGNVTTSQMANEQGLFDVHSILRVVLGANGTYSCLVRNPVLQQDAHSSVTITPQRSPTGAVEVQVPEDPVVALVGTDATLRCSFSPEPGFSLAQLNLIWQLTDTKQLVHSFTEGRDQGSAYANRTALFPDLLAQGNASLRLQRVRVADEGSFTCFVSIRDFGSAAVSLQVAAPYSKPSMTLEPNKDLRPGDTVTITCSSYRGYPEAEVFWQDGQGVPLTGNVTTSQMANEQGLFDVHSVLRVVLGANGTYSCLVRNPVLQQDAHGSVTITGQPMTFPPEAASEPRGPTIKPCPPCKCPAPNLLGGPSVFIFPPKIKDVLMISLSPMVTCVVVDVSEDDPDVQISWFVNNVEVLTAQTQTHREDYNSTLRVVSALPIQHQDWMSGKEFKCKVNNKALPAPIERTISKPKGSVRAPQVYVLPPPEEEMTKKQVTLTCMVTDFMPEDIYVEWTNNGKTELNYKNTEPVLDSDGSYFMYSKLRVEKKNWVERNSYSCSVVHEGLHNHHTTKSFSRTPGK

B1: BGA-026 (Fc fusion)
chain: EVQLVESGGGLVQTGDSLRLSCAASPRTFQTYFMGWFRQAPGKEREFVSVINWSGGTSYYKDSVKGRFTISRDNAKNTVYLQMNNLKPEDTAVYYCAAKGSGTYDREGEYDYWGQGTQVTVSS[human IgG1 Fc with C220S (EU numbers) left out]
notes: Llama VHH fused at the N terminal of human IgG1 Fc (VHH-Fc); also called BGA-026 chimeric; chimeric BGA-026
B2: BGA-056 (Fc fusion)
chain: EVQLLESGGGLVQPGGSLRLSCAASGFTFSDYHMSWVRQAPGKGLEWVSGILNTGLSPTYAATVTGRFTISRDNAKNTLYLSMNSLKPEDTAVYYCAQGYYRATPSQANRGQGTQVTVSS[human IgG1 Fc with C220S (EU numbers) left out]
notes: Llama VHH fused at the N terminal of human IgG1 Fc (VHH-Fc); also called BGA-056 chimeric; chimeric BGA-056

Key:
[1] = target: T1, mouse B7H3-his; experiment: antigen ELISA, antigen coated, detection with HRP anti-human IgG
Method: (§1) For antigen ELISA, a Maxisorp immunoplate was coated with antigen hu 4Ig-B7H3 ECD-mIgG2a or mouse B7H3-his (SinoBiological, 50973-M08H) and blocked with 3% BSA (w/v) in PBS buffer (blocking buffer). Monoclonal VHH antibodies were added to wells of the ELISA plate for 1 hour. After washes with TBST, bound antibodies were detected using HRP-conjugated anti-human IgG antibody (Sigma, A0170) and 3,3′,5,5′-tetramethylbenzidine substrate (Invitrogen).

[2] = target: T2, hu 4Ig-B7H3 ECD-mIgG2a; experiment: as above
Method: as §1

Binder | binding result [1] | binding result [2]
B1 | binds | binds
B2 | – | binds
